For three molecules, IC50 and viability, T/C results are on record in PubChem BioAssay AID2060893 (Molecular Pharmacology Branch, DTP, NCI, 2025).

For this experiment, the system named is K86415-001-R-J1-PDC complex spheroids, viability. The experiment is described as follows: Anticancer human tumor K86415-001-R-J1-PDC patient-derived lung adenocarcinoma cell line growth inhibition [RAS]. The note with it: for IC50: compound alone; for viability, T/C: stronger effect = lower value. The text has this:
RAS pathway inhibitors in Combinations in Complex Spheroids
A high-throughput screen of multi-cell type tumor spheroids was designed to identify active combinations of RAS pathway inhibitors and targeted small molecules. Complex spheroids include a stromal component modeled by human endothelial cells (HUVEC) and fibroblasts modeled by human mesenchymal stem cells (MSCs). The concentration ranges selected for each drug and investigational agent were based upon clinically achievable concentrations if the clinical Cmax of the agent was known.
Compounds. The drugs and investigational agents: abemaciclib (NSC768073), cobimetinib (NSC768068), divarasib (GDC6063, NSC841802), docetaxel (NSC628503), GDC-1971 (RLY-1971, NSC841576), gemcitabine (NSC613327), inavolisib (NSC800729), ipatasertib (NSC767898), KB-0742 (NSC834161), MRTX-1133 (NSC836407), osimertinib (NSC779217), RMC-4630 (NSC839698), RMC-6236 (NSC851965), RMC-6291 (NSC852671), Ro-3306 (NSC812927), sapanisertib (NSC764658), SN-38 (NSC673596), staurosporine (NSC755774), SY5609 (NSC837396), and tovorafenib (DAY101, NSC766906), were obtained from the National Cancer Institute (NCI) Developmental Therapeutics Program Chemical Repository. The FDA-approved anticancer drug set is available from the NCI Developmental Therapeutics Program. […] The stock solutions were prepared in dimethyl sulfoxide (DMSO, Sigma-Aldrich, St. Louis, MO, cat. D2650) at 800-fold the tested concentration and stored at -70 degrees C prior to their use. All drugs and investigational agents were tested over a range starting from a high concentration at or near the clinical Cmax and decreasing in half-log increments. If the clinical Cmax for an agent had not been determined, the highest concentration tested was 10 microM.
Cell Culture. All cells were maintained in an incubator at 37 degrees C and 5% CO2 with 95% humidity. The PDC lines were cultured according to standard operating procedures established by the NCI PDMR. All PDCs were thawed and cultured in Matrigel-coated flasks prepared with a working solution of 1X Ham's F-12 nutrient mix, without supplementation (Invitrogen, Waltham, MA, cat. 11765054), 100 U/mL penicillin-streptomycin (Invitrogen, cat. 15140122), and 2.5% Matrigel (Corning Inc., Corning, NY, cat. 354248) for the first three passages. […]

For part of its entries the source gives two or more results. This is not the full list of results. An entry can have further records. Values that stand side by side repeat one measurement across runs, samples, wells, individuals or studies. Bounds are passed on as bounds.
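Further: spheroids exposed to agents for seven days before readout.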

By IC50 is commonly meant the concentration that inhibits the measured activity by half. By viability, T/C is commonly meant the result in the treated group divided by that in the control group, in per cent. As to `CC(C)NCC(C(=O)N1CCN(c2ncnc3c2C(C)CC3O)CC1)c1ccc(Cl)cc1` (centres undefined), the IC50 was 4.03 µM, 4.77 µM, 9.35 µM, > 10 µM. Moreover, the viability, T/C (compound alone 0.1 µM) is recorded as 124, 96.8, 110, 104%.
For the molecule `CC1(O)CCCC1n1c(=O)c(C(F)F)cc2cnc(NC3CCN(S(C)(=O)=O)CC3)nc21` (centres undefined), the viability, T/C (compound alone 3.16 µM) is reported as 75, 86.2, 70.1, 96.9%.
Regarding `CCn1c(-c2cc(N3CCN(C)CC3)cnc2C(C)OC)c2c3cc(ccc31)-c1csc(n1)CC(NC(=O)C1CC1C)C(=O)N1CCCC(N1)C(=O)OCC(C)(C)C2` (centres undefined), the IC50 (run of 07/09/2024) is listed as < 0.949 nM, 1.09 nM, 1.12 nM, 0.961 nM.
